# Some of the results follow.
# System: HSkMC (human skeletal muscle cells)
# Assay: cytotoxicity call (relative viability < 0.9)
# Conditions: 10 µM
row,SMILES,cytotoxicity call
1,Cc1ccc(S(=O)(=O)N(C)C[C@@H]2OCCCC[C@@H](C)Oc3ccc(NC(=O)CCC(F)(F)F)cc3C(=O)N([C@@H](C)CO)C[C@H]2C)cc1,inactive
2,CC(=O)OC1CCC2(C)C(CCC3(C)C2C2OC2C24OC(=O)C5(CCC(C)C(C)C52)CCC34C)C1(C)C (stereo not given),inactive
3,O=C(NCCCN1CCOCC1)[C@@H]1[C@@H](CO)[C@@H]2Cn3c(cccc3=O)[C@H]1N2C(=O)C1CCCC1,inactive
4,C[C@@H]1CN([C@@H](C)CO)C(=O)c2cccc(NC(=O)Nc3ccc(C(F)(F)F)cc3)c2O[C@H]1CN(C)S(C)(=O)=O,inactive
5,O=C(NCC(F)(F)F)[C@H]1[C@H](CO)[C@H]2Cn3c(cccc3=O)[C@H]2N1C(=O)C1CCC1,inactive
6,C[C@@H]1CN([C@H](C)CO)C(=O)Cc2cc(NC(=O)Cc3ccccc3)ccc2O[C@@H]1CN(C)C(=O)Nc1cccc2ccccc12,inactive
7,Cc1ccc(S(=O)(=O)N(C)C[C@H]2Oc3ccc(NS(=O)(=O)c4cccs4)cc3C(=O)N([C@@H](C)CO)C[C@@H]2C)cc1,inactive
8,C[C@@H]1CN([C@H](C)CO)C(=O)c2cc(/C=C/c3ccccc3)cnc2O[C@@H]1CN(C)C(=O)CN1CCOCC1,inactive
9,C=C(/C=C/CNS(=O)(=O)c1ccc(C)cc1)[C@H](O)[C@H]1CCCN1S(=O)(=O)c1ccccc1[N+](=O)[O-],inactive
10,C[C@@H]1CN([C@H](C)CO)C(=O)Cc2cc(NS(=O)(=O)c3cccs3)ccc2O[C@H]1CN(C)S(=O)(=O)c1cccs1,inactive

# System: HepG2
# Assay: cytotoxicity call (relative viability < 0.9)
# Conditions: 10 µM
row,SMILES,cytotoxicity call
1,COc1ccc(S(=O)(=O)N2C[C@H](O)COC[C@H]3O[C@H](CC(=O)N[C@@H]4CCN(Cc5ccccc5)C4)CC[C@@H]32)cc1,inactive
2,C[C@@H]1CCCCO[C@H](CN(C)CC2CCCCC2)[C@H](C)CN([C@H](C)CO)C(=O)c2cc(NC(=O)NC3CCCCC3)ccc2O1,active
3,COc1ccccc1CN(C)C[C@H]1OCc2ccccc2-c2c(n(C)c3ccccc23)C(=O)N([C@@H](C)CO)C[C@H]1C,inactive
4,CC(C)N1CC2(CN(Cc3ccc(Cl)c(Cl)c3)C2)Oc2c(NC(=O)c3ccncc3)cccc2C1=O,inactive
5,COc1ccccc1NC(=O)N(C)C[C@@H]1Oc2ncc(Br)cc2C(=O)N([C@H](C)CO)C[C@H]1C,inactive
6,O=S(=O)(Cc1ccccc1)Nc1ccc(-c2ccc3c(cnn3-c3ccc(F)cc3)c2)c(C(F)(F)F)c1,inactive
7,COc1ccc(S(=O)(=O)Nc2cccc3c2O[C@@H](CN(C)C(=O)Nc2cccc4ccccc24)[C@@H](C)CN([C@H](C)CO)C3=O)cc1,inactive
8,Nc1nc(=O)c2nc(CNc3ccc(C(=O)NC(CCC(=O)O)C(=O)O)cc3)cnc2[nH]1 (stereo not given),inactive
9,C[C@H](CO)N1C[C@H](C)[C@H](CN(C)C(=O)C2CCOCC2)Oc2ncc(/C=C/c3ccccc3)cc2C1=O,inactive
10,NCC1OC(OC2C(CO)OC(OC3C(O)C(N)CC(N)C3OC3OC(CO)C(O)C(O)C3N)C2O)C(N)C(O)C1O.O=S(=O)(O)O (stereo not given),inactive
11,Cc1ccc(S[C@]2(C(=O)NC3CC3)CC(=O)N(Cc3ccccc3C(F)(F)F)[C@@H]2c2ccc(CO)cc2I)cc1,inactive
12,C[C@H](CO)N1C[C@H](C)[C@@H](CN(C)Cc2ccc(Oc3ccccc3)cc2)OCc2ccccc2-c2c(n(C)c3ccccc23)C1=O,inactive
13,Cc1ccc(S(=O)(=O)N(C)C[C@@H]2OCCCC[C@H](C)Oc3ccc(NC(=O)Nc4ccc5c(c4)OCO5)cc3C(=O)N([C@H](C)CO)C[C@H]2C)cc1,inactive
14,COc1ccc(CN2C[C@H](C)[C@H](OC)CN(C)C(=O)c3cc(NC(=O)c4nc5ccccc5s4)ccc3OC[C@@H]2C)cc1,inactive
15,Cc1noc(C)c1NC(=O)Nc1ccc2c(c1)CC(=O)N([C@@H](C)CO)C[C@H](C)[C@H](CN(C)Cc1ccc(Cl)c(Cl)c1)O2,inactive
16,COc1ccc([Si](C)(C)[C@@H]2[C@@H](CCn3cc([C@H](O)c4ccccc4)nn3)O[C@]3(C(=O)N(Cc4cccc(N5CCOC5=O)c4)c4ccccc43)[C@H]2C)cc1,inactive
17,C[C@@H]1CN([C@H](C)CO)C(=O)c2cc(N(C)C)ccc2O[C@@H](C)CCCCO[C@H]1CN(C)Cc1ccc(C(=O)Nc2ccccc2N)cc1,inactive
18,CO[C@H]1CN(C)C(=O)c2ccc(NC(=O)C3CCOCC3)cc2OC[C@@H](C)N(Cc2cccnc2)C[C@@H]1C,inactive
19,CC(C)[C@H](NC(=O)[C@H](CC(=O)O)NC(=O)[C@H](CCCCN)NC(=O)[C@@H](N)CCCNC(=N)N)C(=O)N[C@@H](Cc1ccc(O)cc1)C(=O)O,inactive
20,O=C(NC[C@H]1CCCO1)c1ccc[nH]1,inactive

row,SMILES,cytotoxicity call
1,CN(C)S(=O)(=O)N1Cc2nnn(C)c2[C@H](COCC2CC2)C1,inactive
2,C[C@@H]1CN([C@@H](C)CO)C(=O)c2cc(NC(=O)Nc3ccc(C(F)(F)F)cc3)ccc2O[C@@H](C)CCCCO[C@@H]1CN(C)C,inactive
3,CS(=O)(=O)Nc1ccc2c(c1)[C@H]1C[C@@H](CC(=O)NCc3ccc(-c4ccccc4)cc3)O[C@@H](CO)[C@H]1O2,inactive
4,O=C(C[C@H]1CC[C@H](NS(=O)(=O)c2ccc(F)cc2)[C@@H](CO)O1)N1CCC(Cc2ccccc2)CC1,inactive
5,CC=Cc1ccc2n(c1=O)C[C@@H]1[C@@H](CO)[C@H](C(=O)NCCC)[C@H]2N1S(=O)(=O)c1cn(C)cn1,inactive
6,Cc1ccc(N2C[C@@H](N)CC2=O)cc1,inactive
7,C[C@@H]1CN([C@H](C)CO)C(=O)c2cc(NS(=O)(=O)c3cccs3)ccc2O[C@H]1CN(C)S(=O)(=O)c1cn(C)cn1,inactive
8,C[C@@H]1CN([C@H](C)CO)C(=O)c2cccc(NC(=O)c3cnccn3)c2O[C@@H]1CN(C)S(=O)(=O)c1ccc(Cl)cc1,inactive
9,NCC[C@H]1CC[C@@H](NC(=O)Nc2ccc(F)cc2)[C@@H](CO)O1,inactive
10,CC(=O)N1[C@H](CO)[C@@H](c2ccccc2)C12CN(C(=O)CN1CCOCC1)C2,inactive
11,Cc1ccc(S(=O)(=O)N(C)C[C@@H]2OCCCC[C@@H](C)Oc3ccc(NC(=O)CCC(F)(F)F)cc3C(=O)N([C@@H](C)CO)C[C@H]2C)cc1,inactive
12,CC(=O)OC1CCC2(C)C(CCC3(C)C2C2OC2C24OC(=O)C5(CCC(C)C(C)C52)CCC34C)C1(C)C (stereo not given),inactive
13,O=C(NCCCN1CCOCC1)[C@@H]1[C@@H](CO)[C@@H]2Cn3c(cccc3=O)[C@H]1N2C(=O)C1CCCC1,inactive
14,C[C@@H]1CN([C@@H](C)CO)C(=O)c2cccc(NC(=O)Nc3ccc(C(F)(F)F)cc3)c2O[C@H]1CN(C)S(C)(=O)=O,inactive
15,O=C(NCC(F)(F)F)[C@H]1[C@H](CO)[C@H]2Cn3c(cccc3=O)[C@H]2N1C(=O)C1CCC1,inactive
16,C[C@@H]1CN([C@H](C)CO)C(=O)Cc2cc(NC(=O)Cc3ccccc3)ccc2O[C@@H]1CN(C)C(=O)Nc1cccc2ccccc12,inactive
17,Cc1ccc(S(=O)(=O)N(C)C[C@H]2Oc3ccc(NS(=O)(=O)c4cccs4)cc3C(=O)N([C@@H](C)CO)C[C@@H]2C)cc1,inactive
18,C[C@@H]1CN([C@H](C)CO)C(=O)c2cc(/C=C/c3ccccc3)cnc2O[C@@H]1CN(C)C(=O)CN1CCOCC1,inactive
19,C=C(/C=C/CNS(=O)(=O)c1ccc(C)cc1)[C@H](O)[C@H]1CCCN1S(=O)(=O)c1ccccc1[N+](=O)[O-],inactive
20,C[C@@H]1CN([C@H](C)CO)C(=O)Cc2cc(NS(=O)(=O)c3cccs3)ccc2O[C@H]1CN(C)S(=O)(=O)c1cccs1,inactive
